Test results published in patent US20240409576A1, “-ent-19-norprogesterone, compositions and uses thereof to treat traumatic brain injury (TBI), including concussions-” (Oragenics, Inc., priority 2015, published 2024).

Protocol: An Example of an ent-19-norprogesterone (PRV-002) solution that is used in accordance with Examples 26 and 27.
The PRV-002 solution is prepared by adding about 30 mg of PRV-001 compound to about 1 ml of 35.8% 2-Hydroxypropyl-p-cyclodextrin. Solution is hazy after mixing for about 60 min. Then about 0.1 ml of about 35.8% 2-Hydroxypropyl-P-cyclodextrin is added to about 1 ml of PRV-002-Cyclodextrin mixture. Solution is hazy after mixing for about 120 min. Additional 0.1 ml of about 35.8% 2-Hydroxypropyl-p-cyclodextrin is added to about 1.1 ml of PRV-002-Cyclodextrin mixture and left on mixing overnight (0/N). […] About 0.1 ml more of about 35.8% 2-Hydroxypropyl-p-cyclodextrin is added to about 1.2 ml of PRV-002-Cyclodextrin mixture. Addition of another about 0.3 ml (0.1+0.1+0.1) aliquot of about 35.8% 2-Hydroxypropyl-p-cyclodextrin only slightly improves the clarity of PRV-002 solution. It is believed that PRV-002 is in solution at about 23 mg/mi, and slight haziness is some sort of an artifact.

For CC(=O)[C@@H]1CC[C@@H]2[C@H]3CCC4=CC(=O)CC[C@H]4[C@@H]3CC[C@]21C (single isomer, unassigned; ent-19) [PRV-002, ent-19-norpregn-4-ene-3,20-dione], which “Final Calculated concentration” value (30 mg PRV-002 in ~1.3 ml Solution 1 (35.8% 2-Hydroxypropyl-β-cyclodextrin)) is on record?
The value was 23 mg/mL.

What about the “Concentration at which PRV-002 is believed to be in solution” value (about 35.8% 2-Hydroxypropyl-p-cyclodextrin, ~1.3 ml) of the same compound?
Its value is “about 23 mg/mi”.
